PubChem BioAssay AID686978 (National Center for Advancing Translational Sciences (NCATS), 2013)
Hit rate of the full screen: of about 420,000 compounds, about 64,000 (15%) were called active. The inconclusive results got no clear call from the source; some entries with a clear call stand among them for comparison. Calls follow the shape of the dose curve; as a rule, active = well fitted inhibition curve with a large enough effect; inconclusive = small, poorly fitted or top-dose-only effect; inactive = flat fitted curve, though single readings scatter. Potencies of inconclusive entries are left out as doubtful fits.
% is scaled to controls: 0 for no effect and ±100 for the full control effect; potency is read from the fitted curve at half-maximal effect; tags tell the direction and shape of the fitted curve.

Assay: qHTS for Inhibitors of human tyrosyl-DNA phosphodiesterase 1 (TDP1): qHTS in cells in absence of CPT; also: nearly all actives have a fitted effect of over 55% in size
Conditions: DT40 Tdp1-/- hTDP1 cells, no CPT, ATP luminescence, 48 h; activity change, negative = growth inhibition: at 46.2 µM (top of the series) unless noted
Method in brief: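 Growth kinetics read by CellTiter-Glo luminescence after ≥48 hr at 37 °C. Cells: DT40 Tdp1-/- stably carrying human TDP1, 400 per well, compound exposure in the absence of CPT (DMSO vehicle).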
With `C=CCN1C(=O)C(CC(=O)NCC)SC1=Nc1ccccc1OC` (configuration not stated) the Potency was “inactive”. For `O=C(c1ccccc1)N1CCN(S(=O)(=O)c2ccc(Cl)c(C(F)(F)F)c2)CC1`, the Potency was “inactive”. For `COc1ccc(N(CC(=O)NC2CCCCC2)C(=O)CNC(=O)c2ccco2)cc1`, the Potency was “inactive”. In the case of `O=c1[nH]c(-c2ccco2)nc2sc3c(c12)CCCC3`, the Potency is reported as inconclusive [inhibitor, full curve, poor fit]. In the case of `Cc1ccc(S(=O)(=O)N(C)C)cc1NC(=O)C1CCCCN1S(=O)(=O)c1ccccc1` (configuration not stated), the Potency is reported as inconclusive [inhibitor, partial curve]. With `COc1ccc2c(c1)C(=O)C1(CC2)OC1c1cccnc1` (configuration not stated) the Potency was inconclusive [inhibitor, single point]. In the case of `CCOc1ncccc1C(=O)OCC(=O)Nc1ccc(C(N)=O)cc1`, the Potency is reported as “inactive”. For `COc1ccccc1N(C(=O)c1snc(C(N)=O)c1N)C(C(=O)NC1CCCC1)c1ccc2ncccc2c1` (configuration not stated), the Potency was “inactive”. With `Cc1oc(-c2ccccc2NC(=O)c2ccccc2)nc1CNC(=O)C1CC(=O)OC12CCCCC2` (configuration not stated) the Potency was “inactive”. In the case of `CCC(=O)N1N=C(c2ccc(C)cc2)CC1c1ccco1` (configuration not stated), the Potency is reported as active: 13 µM. With `Cc1ccc(NC(=O)C(=O)NNC(=O)c2ccccc2C)cc1Cl` the Potency was inconclusive [inhibitor, partial curve]. In the case of `c1nc(NC2CCCCC2)c2[nH]cnc2n1`, the Potency is reported as “inactive”. For `O=C(C[n+]1ccc(C(=O)c2ccccc2)cc1)Nc1ccccc1OC(F)F`, the Potency was active: 16.4 µM. In the case of `COC(=O)c1cc(O)cc(OC)c1C(=O)c1c(O)cc(C)cc1O`, the Potency is reported as inconclusive [inhibitor, single point]. For `O=C(/C=C\c1cn(-c2ccccc2)nc1-c1ccc2c(c1)OCCO2)N1CCOCC1`, the Potency was active: 10.3 µM. In the case of `CCc1ccc(NC(=O)Cn2nnc(C(=O)NCc3ccc4c(c3)OCO4)c2N)cc1`, the Potency is reported as “inactive”. In the case of `O=C1NC2(CCCCC2)Oc2ccccc21`, the Potency is reported as inconclusive [inhibitor, single point]. With `CCC1CCCCN1C(=O)CSc1nnc(CNC(=O)COc2ccc(Cl)cc2)o1` (configuration not stated) the Potency was inconclusive [inhibitor, partial curve]. In the case of `Cc1ccc2oc(=O)c(-c3ccc(O)cc3)c(C)c2c1`, the Potency is reported as inconclusive [inhibitor, single point]. In the case of `COc1ccc(CNC(=O)C2(CC3CC(c4ccccc4)=NO3)CCN(C(=O)Cc3ccc(F)cc3)CC2)cc1` (configuration not stated), the Potency is reported as inconclusive [inhibitor, single point]. In the case of `COCCNC(=S)Nc1ccc(S(=O)(=O)Nc2ncccn2)cc1`, the Potency is reported as “inactive”. In the case of `CC(C)CN1C(=O)C(=O)N(CC(=O)N(C)CC(=O)Nc2ccc(Cl)c(C(F)(F)F)c2)C1=O`, the Potency is reported as inconclusive [inhibitor, partial curve, poor fit]. With `COCc1cc(C)n(CC(=O)N/N=C/c2ccc(-c3ccc(Cl)c(C(=O)O)c3)o2)c(=O)c1C#N` the Potency was “inactive”. For `COc1ccc(CN2CCc3nc(SCC(=O)Nc4cc(C)cc(C)c4)[nH]c(=O)c3C2)cc1`, the Potency was “inactive”. For `COc1cccc(NC(=O)N2CCN3CCCCC3C2)c1` (configuration not stated), the Potency was “inactive”. For `C=CCSc1nc2ccccc2n1Cc1nnc(-c2cccs2)o1`, the Potency was inconclusive [inhibitor, single point]. In the case of `CCn1cnc2cc(NCc3nc4ccccc4n3C)ccc21`, the Potency is reported as inconclusive [inhibitor, single point]. For `O=C(Nc1ccc(F)cc1F)c1cncc(Br)c1`, the Potency was inconclusive [inhibitor, single point]. In the case of `COc1ccc2[nH]cc(CCNc3ncncc3-c3ccccc3Cl)c2c1`, the Potency is reported as inconclusive [inhibitor, single point]. With `CCCc1ccc2oc(C(=O)N3CCC[C@H]3CO)c(C)c2c1` the Potency was inconclusive [inhibitor, single point]. For `Cc1ccc(NC(=O)CSc2ncc3c(n2)-c2ccc(Cl)cc2N(C)S3(=O)=O)cc1F`, the Potency was inconclusive [inhibitor, single point]. With `Cc1[nH]c(=O)c(C#N)c2c1CCCC2` the activity change, negative = growth inhibition was inconclusive: -31% [inhibitor]. In the case of `Cc1nc(SCC(=O)Nc2ccc(Cl)cc2[N+](=O)[O-])nc(C)c1C`, the activity change, negative = growth inhibition is reported as inconclusive: -30.8% [inhibitor]. With `COc1ccc(-c2noc(CSc3nnc(C)n3-c3ccc(OC)cc3)n2)cc1` the Potency was inconclusive [inhibitor, single point]. In the case of `Cn1nnnc1SCCCNCc1ccccc1OCc1ccccc1Cl`, the Potency is reported as active: 4.61 µM. In the case of `Cc1ccc2nc(-c3ccccc3)cc(C(=O)Nc3cccnc3)c2c1`, the Potency is reported as inconclusive [inhibitor, partial curve]. With `CCN(CC)C(=O)C1=C(C)N(Cc2ccc(F)cc2)C(=O)C(CC(=O)NC2CCCC2)C1` (configuration not stated) the Potency was “inactive”. In the case of `CC(C)(C)NC(=O)C(c1cccc2ccccc12)n1c(=O)c(-c2ccco2)nc2ccccc21` (configuration not stated), the Potency is reported as inconclusive [inhibitor, single point]. With `O=C(Nc1ccc(OC(=O)c2ccccc2)c(-c2nc3ccccc3s2)c1)c1ccccc1` the Potency was inconclusive [inhibitor, single point]. For `CN(C)C(=O)c1ccc(-c2ccc3ncnc(N4CCOCC4)c3c2)cc1`, the Potency was inconclusive [inhibitor, single point]. In the case of `Cc1ccc(N(CC(=O)NC2CCCCC2)C(=O)CCCC(=O)Nc2ccccn2)cc1`, the Potency is reported as “inactive”. With `CC(=O)Nc1ccc(/C=C2\C=Cc3ccccc32)cc1` the Potency was inconclusive [inhibitor, single point]. For `CCOC(=O)c1ccc([N+](=O)[O-])cc1NC(C)=O`, the Potency was “inactive”. For `CC(C)CCC1(CCO)C(=O)N=C(N)NC1=O` (configuration not stated), the Potency was “inactive”. With `CCOC(=O)c1ccc(NC(=O)c2oc(=O)c3ccccc3c2-c2ccccc2)cc1` the Potency was inconclusive [inhibitor, single point]. For `Cc1cc(Br)c2c(c1)C(O)(N1CCCCC1C)C(=O)N2` (configuration not stated), the Potency was “inactive”. With `CC1CC(C)CN(CCC(=O)Nc2cccc(Cl)c2)C1` (configuration not stated) the Potency was inconclusive [inhibitor, single point].
